From PubChem BioAssay AID2147 (National Center for Advancing Translational Sciences (NCATS), 2009)
In all, about 230,000 compounds went through this assay and about 3,600 (1.6%) were called active. This list was built around the results that the source calls inconclusive (neither active nor inactive); the mix of calls is not that of the screen. The call rests on the fitted dose curve; in most records, active means well fitted inhibition curve with a large enough effect (not every such curve was filed as active); inconclusive means small, poorly fitted or top-dose-only effect, or another doubt; inactive means no such curve, though single readings can be large or run the other way. Potencies beside an inconclusive call are fits to weak or partial responses and may not hold up.

What follows are compounds tested against Lysine-specific demethylase 4E (Homo sapiens) (UniProt B2RXH2) (assay: qHTS Assay for Inhibitors of Human Jumonji Domain Containing 2E (JMJD2E)). Settings: JMJD2E catalytic domain, FDH-coupled NADH fluorescence (FDH is formaldehyde dehydrogenase); series mostly up to 57.1 µM; activity change, negative = inhibition: at the top concentration.
UniProt B2RXH2, sequence (B2RXH2 whole entry, looked up, the tested form may be a part): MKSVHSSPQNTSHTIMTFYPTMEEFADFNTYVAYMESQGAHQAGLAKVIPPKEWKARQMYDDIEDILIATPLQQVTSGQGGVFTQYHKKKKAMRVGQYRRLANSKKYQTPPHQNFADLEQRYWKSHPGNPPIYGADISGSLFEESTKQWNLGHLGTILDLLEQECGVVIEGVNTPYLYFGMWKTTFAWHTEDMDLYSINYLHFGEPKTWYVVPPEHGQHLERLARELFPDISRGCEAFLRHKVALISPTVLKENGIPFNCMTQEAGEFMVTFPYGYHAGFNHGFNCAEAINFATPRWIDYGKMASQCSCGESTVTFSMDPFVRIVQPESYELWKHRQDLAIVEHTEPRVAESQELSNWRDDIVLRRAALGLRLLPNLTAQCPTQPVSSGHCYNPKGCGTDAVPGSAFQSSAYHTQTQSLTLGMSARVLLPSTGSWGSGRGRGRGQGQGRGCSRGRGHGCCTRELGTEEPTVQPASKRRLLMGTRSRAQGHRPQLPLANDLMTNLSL
Further: nearly all actives have a fitted effect of over 50% in size.
Potency means the concentration at half of the fitted maximal effect; tags describe the fitted curve by direction and shape.
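Wherever activity change, negative = inhibition is given: 0% = wells with enzyme and -100% = buffer wells without enzyme.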

SMILES	activity change, negative = inhibition	Potency
O=C(/C=C/c1ccccc1)NC(=S)Nc1ccc(N2CCOCC2)c(Cl)c1	inactive: -0.0645%	–
COc1ccc(C2C(C#N)=C(SCC(=O)Nc3ccc(C)cc3)NC3=C2C(=O)CC(C)(C)C3)cc1 (stereo not drawn)	–	inconclusive: 35.5 µM [inhibitor, partial curve]
COc1cc(/C=C2/S/C(=N/S(=O)(=O)c3ccccc3)NC2=O)c([N+](=O)[O-])cc1OC	inactive: 4.48%	–
COCCNC(=O)c1cccc(NS(=O)(=O)c2cccc3cccnc23)c1	inactive: 1.6%	–
O=C(CNCc1ccccn1)N1CCc2ccccc2C1	–	inconclusive: 12.6 µM [inhibitor, partial curve]
COc1cc(NC(=O)CN2CCN(c3ccccc3O)CC2)c(C)cc1[N+](=O)[O-]	inactive: 1.92%	–
Cc1nn(-c2ccccc2)c2c1cc1c(=O)n(C)c(=O)nc-1n2-c1ccccc1F	–	inconclusive: 8.91 µM [inhibitor, partial curve]
CC12CCC(C(=O)NCCCN3CCOCC3)(C(Br)C1=O)C2(C)C (stereo not drawn)	inactive: 1.59%	–
Cc1sc(NC(=O)c2ccco2)c(C(c2ccccc2)N2CCC(C)CC2)c1C (stereo not drawn)	–	inconclusive: 35.5 µM [inhibitor, partial curve]
COc1cccc(-c2cn3nc4c(nc3n2)CCCC4)c1	–	active: 22.4 µM
O=C(NCCOc1nc(N2CCCCC2)nc(N2CCOCC2)n1)Nc1ccccc1	inactive: 13.4%	–
O=C1/C(=C/N(C(=O)c2ccco2)c2ccc(Cl)cc2)Sc2ccccc21	–	inconclusive: 35.5 µM [inhibitor, single point]
C=N[C@H](C(=O)N[C@@H]1C(=O)N2[C@@H]1SC(C)(C)[C@@H]2C(=O)O)c1ccccc1	–	inconclusive: 12.6 µM [inhibitor, partial curve]
Cc1ccsc1-c1nc(CN2CCCC2c2ccc(F)cc2)c(C)o1 (stereo not drawn)	–	inconclusive: 31.6 µM [inhibitor, single point]
COc1cccc(N2CCN(c3ncnc4c3cnn4-c3ccc(C)cc3C)CC2)c1	–	inconclusive: 39.8 µM [inhibitor, single point]
O=c1c(O)c(-c2ccc(O)c(O)c2)oc2c(OC[C@@H]3O[C@@H](O)[C@@H](O)[C@H](O)[C@H]3O)c(O)cc(O)c12	–	active: 5.01 µM
O=C(O)CC/C(=N\Nc1ccc(S(=O)(=O)N2CCCC2)cc1[N+](=O)[O-])c1cccs1	inactive: -0.431%	–
C/C=C/C(=O)N1CC2(CC(c3cccc(NC(=O)COc4ccc(Cl)cc4)c3)=NO2)C[C@@H]1C(N)=O (stereo partly drawn)	–	inconclusive: 22.4 µM [inhibitor, partial curve]
CC(C)CCNC(=O)CCc1nnc(COc2ccccc2)o1	inactive: -19.9%	–
CC(NC(=O)CC1Nc2ccccc2NC1=O)c1ccccc1 (stereo not drawn)	–	inconclusive: 28.2 µM [inhibitor, partial curve]
O=C(O)c1cccnc1SCc1cn2cc(Cl)ccc2n1	–	inconclusive: 39.8 µM [inhibitor, single point]
CCOC(=O)C(=O)/C(=C\N(C)C)c1onc(-c2c(Cl)cccc2Cl)c1C(=O)OC	inactive: 3.08%	–
C=CCOC(=O)C1=C[C@@H](c2ccc(Br)cc2)C[C@@H](OCc2ccc(CO)cc2)O1	inactive: -6.59%	–
CC(=O)Nc1ccc(SCC(=O)c2cc(C)n(C)c2C)cc1	inactive: 6.34%	–

SMILES	activity change, negative = inhibition	Potency
COc1cc(N/N=C/c2ccccc2O)ncn1	–	active: 25.1 µM
COC(=O)c1ccccc1NC(=O)NCc1cccnc1	–	inconclusive: 28.2 µM [inhibitor, partial curve]
O=C(NCc1ccco1)/C(=C/c1cccc(C(F)(F)F)c1)c1nc2ccccc2[nH]1	–	inconclusive: 28.2 µM [inhibitor, single point]
COc1ccccc1/C=C\C(=O)OC[C@@H]1CCCN2CCCC[C@H]12	–	inconclusive: 35.5 µM [inhibitor, single point]
O=C(O)c1cccc(N2CCCC2=O)c1	inactive: -3.96%	–
Cc1cc2ccccc2c(=O)n1CC(=O)NCC1COc2ccccc2O1 (stereo not drawn)	–	inconclusive: 35.5 µM [inhibitor, partial curve]
Nc1nc(-c2ccc(C(=O)O)cc2)cs1	–	inconclusive: 25.1 µM [inhibitor, partial curve]
CC(=O)Oc1ccc(C(=O)[C@H]2[C@H]3C(=O)N(c4ccc(C)cc4)C(=O)[C@H]3[C@@H]3C=CC=NN32)cc1	inactive: -27.8%	–
COc1ccc2c(c1)[C@]1(C)CCC(=O)C[C@H]1CC2	inactive: -26.9%	–
O=C(N/N=C/c1ccccn1)c1ccc(N/N=C/c2ccccn2)cc1	–	inconclusive: 39.8 µM [inhibitor, single point]
O=c1c2cc(NC(=S)NCc3cccnc3)ccc2nc2n1CCCCC2	–	inconclusive: 28.2 µM [inhibitor, partial curve]
Cc1cc(Nc2ccccc2)nc(NCc2ccccc2)n1	–	inconclusive: 35.5 µM [inhibitor, single point]
CC(NC(=O)CCl)c1ccc(Cl)c(Cl)c1 (stereo not drawn)	inactive: -0.809%	–
O=C(O)c1cccc(NCc2ccncc2)c1	–	inconclusive: 35.5 µM [inhibitor, single point]
Cc1ccc(-c2cc(-c3ccc(F)cc3)nc(N)c2C#N)o1	–	inconclusive: 35.5 µM [inhibitor, partial curve]
CCNc1nc(NCC)nc(OCCOC(C)=O)n1	inactive: -7.51%	–
Cc1cccc(N2CCN(Cc3ccoc3)CC2)c1C	–	inconclusive: 25.1 µM [inhibitor, single point]
COc1ccccc1NC(=O)CN1CCN(C2c3ccccc3-c3ccccc32)CC1	inactive: 2.77%	–
COC(=O)C1=CN(CC2CCCO2)C=C(C(=O)OC)C1c1cc(OC)c(OC)c(OC)c1 (stereo not drawn)	–	inconclusive: 11.2 µM [inhibitor, partial curve]
C=C(C)C(=O)Nc1nnc(-c2ccccc2C)s1	inactive: -3.88%	–
O=S(=O)(c1ccc(Cl)cc1)N1CCN(Cc2ccc(O)c3ncccc23)CC1	–	active: 25.1 µM
O=C1CC(SC2=NCCS2)C(=O)N1c1ccc(Br)cc1 (stereo not drawn)	inactive: 2.67%	–
Cc1noc(C)c1C(=O)OCC(=O)Nc1ccccc1C(=O)NC(C)c1ccccc1 (stereo not drawn)	–	inconclusive: 39.8 µM [inhibitor, single point]
CCCC1OC23CCCCC2C(C#N)(C#N)C1(C#N)C(=N)O3 (stereo not drawn)	–	inconclusive: 28.2 µM [inhibitor, partial curve]
